# Screen size: about 390,000 compounds; about 360 (0.092%) were called active. Inconclusive means that the source gave no clear call. Such entries were picked first, then a sample of the others. The call rests on the fitted dose curve; in most records, active means well fitted inhibition curve with a large enough effect; inconclusive means small, poorly fitted or top-dose-only effect; inactive means no such curve, though single readings can be large or run the other way. Potencies beside an inconclusive call are fits to weak or partial responses and may not hold up.
# Molecular target: Isocitrate dehydrogenase [NADP] cytoplasmic (Homo sapiens) (UniProt O75874)
# Experiment: qHTS for Inhibitors of mutant isocitrate dehydrogenase 1 (IDH1): qHTS; further: nearly all actives have a fitted effect of over 65% in size
# Conditions: IDH1-R132H enzyme, NADPH consumption, diaphorase/resazurin fluorescence; series mostly up to 76.6 µM; activity change, negative = inhibition: at the top concentration
# Excerpt: Unbiased genomic sequencing for 22 glioma genomes found recurrent mutation of isocitrate dehydrogenase 1 (IDH1) on chromosome 2q33-a gene encoding the cytosolic isoform of IIDH1associated with the tricarboxylic acid cycle (TCA) that catalyzes the oxidative decarboxylation of isocitrate, yielding alpha-ketoglutarate and CO2 via NADP+ to NADPH conversion. Subsequent studies confirmed the recurrent IDH mutations in up to 70% of secondary gliomas and in 10% of AML cases. […] This in effect defines IDH1 as an oncogene, and provides an extraordinary opportunity to discover chemical probes against mutant IDH1 that may translate into much needed new therapies for glioma and AML patients. […] NIH Chemical Genomics Center [NCGC] NIH Molecular Libraries Probe Centers Network [MLPCN] MLPCN Grant: DA032129 Assay Submitter (PI): Lenny Dang, Agios Pharmaceuticals
# IDH1-R132H (0.5 ug/mL) was dispensed into black, solid-bottom 1536-well plates at 3 uL/well in 20 mM Tris-HCl (pH 7.5), 150 mM NaCl, 10 mM MgCl2, 4 mM beta-ME, and 0.05% protease-free BSA. Then, 23 nL of compounds or DMSO were delivered to each well using a pin tool. A pre-read was run on the Viewlux to identify fluorescent compounds (540 nm excitation filter, 598 nm emission filter, bodipy mirror and 2 second exposure). After 30 minutes of incubation with compound, 3 uL of substrate mix were dispensed (0.016 mM NADPH, 2 mM alpha-KG, 20 mM Tris-HCl (pH 7.5), 150 mM NaCl, 10 mM MgCl2, and 0.05% protease-free BSA). Plates were spun for 1 min at 1000xg and incubated at room temperature for 80 min. Then 1.5 uL of each detection reagent component for the coupling system were added (0.12 mg/mL diaphorase and 0.072 mM resazurin, each in 20 mM Tris-HCl (pH 7.5), 150 mM NaCl, 10 mM MgCl2, and 0.05% protease-free BSA ) The protein, substrate and two detection components were maintained at 4 °C throughout the screen. Additionally, the substrate and resazurin reagents were protected from light. The plates were measured on an Envision plate reader for fluorescence signal using a 540 nm excitation filter and 590 nm emission filter with 10 flashes. 1x and 0x (no-enzyme) IDH1-R132H enzyme control were used to normalize %Activity of identified inhibitors; 0x enzyme values corresponded to 100% Activity (full inhibition), while 1x IDH1-R132H enzyme values were used to normalize 0%Activity (no inhibition). Concentration-response curves were fitted to the signals arising from the resulting fluorescence. The concentration-effect curves were then classified based on curve quality (r2), response magnitude and degree of measured activity, and compounds were subsequently categorized based on their curve class. […] Keywords: isocitrate dehydrogenase, IDH1, IDH1-R132H, MLSMR, MLPCN, NIH Roadmap, qHTS, NCGC
# On the % scale 0 is the no-effect control and ±100 the full control effect; potency means the concentration at half of the fitted maximal effect; tags describe the fitted curve by direction and shape.
SMILES,Potency,"activity change, negative = inhibition"
COc1ccc(/C=C/C(=O)c2ccc([N+](=O)[O-])o2)cc1OC,"inconclusive: 28.2 µM [inhibitor, single point]",
CN1CCc2nc3ccc(Cl)cc3c(-c3ccccc3Cl)c2C1,"inconclusive: 52.1 µM [inhibitor, single point]",
CCc1cccc(CC)c1-n1c(SCn2nnc3ccccc3c2=O)nnc1-c1cccnc1,"inconclusive: 46.5 µM [inhibitor, partial curve, poor fit]",
O=C(c1ccc(F)cc1)N1c2ncnn2C2(CCCCC2)[C@@H]2CCCC[C@@H]21,,inactive: -8.85%
CC(C)Cn1c(SCC(=O)N(C)C2CCS(=O)(=O)C2)nc2cc(Cl)ccc2c1=O (configuration not stated),"inconclusive: 52.1 µM [inhibitor, single point]",
Cc1[nH][nH]c(=O)c1C(c1c(C)[nH][nH]c1=O)c1cn(Cc2ccccc2Cl)c2ccccc12,"inconclusive: 46.5 µM [inhibitor, partial curve]",
C[C@@H]1CN([C@H](C)CO)C(=O)CCCn2nncc2CO[C@@H]1CN(C)S(=O)(=O)c1ccccc1F,,inactive: -6.35%
N#CC1=C2N=C(N)c3ccccc3N2C2=C(C(=O)CCC2)C1c1ccc(F)cc1 (configuration not stated),"inconclusive: 52.1 µM [inhibitor, partial curve]",
Cc1ccc(CNC(=O)c2ccc(CSCc3c(F)cccc3Cl)o2)cc1,active: 39.8 µM,
CCOC(=O)c1[nH]c(C)c(C(=O)NCCc2ccccc2)c1C,,inactive: 12.5%
Cc1ccccc1Nc1nc2ccccc2s1,,inactive: 3.56%
CN(C)Cc1c(C(=O)N/N=C/c2ccccc2OCc2c(F)cccc2Cl)nnn1-c1nonc1N,active: 36.9 µM,
Cc1ccc(-c2n[nH]c3c2C(c2ccccc2)N(c2ccc(C(=O)O)cc2)C3=O)cc1 (configuration not stated),active: 52.1 µM,
Cc1ccc(C2=NN=C(NC(=O)C(F)(F)F)SC2)cc1,"inconclusive: 44.7 µM [inhibitor, partial curve, poor fit]",
CCCc1nc(SCC(=O)N2CCCc3ccccc32)c2c(=O)n(C)c(=O)n(C)c2n1,"inconclusive: 44.7 µM [inhibitor, partial curve, poor fit]",
Cc1cccc(Nc2nc(NCc3ccco3)c3ccccc3n2)c1,,inactive: -21.9%
CC(=O)N1CCc2c(sc3c2c(=O)n(-c2ccccc2)c(=O)n3Cc2cccc(C(F)(F)F)c2)C1,active: 22.4 µM,
COC(=O)c1c(NC(=O)c2c(OC)cccc2OC)sc2c1C(C(=O)OC)CC2 (configuration not stated),,inactive: -4.34%
CCSc1nc2sc3c(c2c(=O)n1-c1ccc(C)cc1)CCN(C)C3,"inconclusive: 46.5 µM [inhibitor, partial curve]",
N#CC1=C(N)C(C#N)(C#N)C(c2ccncc2)C2CN(C(=O)OCc3ccccc3)CC=C12 (configuration not stated),active: 46.5 µM,
CC(=O)N1CCN(C(=O)c2cccc(S(=O)(=O)N3CCN(c4ccccc4)CC3)c2)CC1,,inactive: -3.81%

SMILES,Potency,"activity change, negative = inhibition"
CC1=C(C#N)c2nc(N)c(C#N)c(C)c2/C1=C\c1ccc(OCC(=O)O)c(Cl)c1,"inconclusive: 58.5 µM [inhibitor, single point]",
Cn1c(=O)c2c(-c3ccccc3Br)n(Cc3ccccc3)cc2n(C)c1=O,"inconclusive: 50.1 µM [inhibitor, single point]",
CC(C)C(=O)NC(c1cccs1)c1cc([N+](=O)[O-])c2cccnc2c1O (configuration not stated),"inconclusive: 50.1 µM [inhibitor, single point]",
Nc1c(C(=O)NCc2ccccc2)sc2nc(N3CCOCC3)c3c(c12)CCCC3,"inconclusive: 9.27 µM [inhibitor, full curve]",
COc1ccc(Br)cc1CN(C)C(=O)c1ccccc1SCC(=O)N1CCCC1,active: 46.5 µM,
CC(C)N1CC=C2C(C#N)=C(N)C(C#N)(C#N)C(c3ccccc3)C2C1 (configuration not stated),"inconclusive: 50.1 µM [inhibitor, single point]",
Cc1ccc(C2c3c(-c4ccccc4O)n[nH]c3C(=O)N2Cc2ccncc2)cc1 (configuration not stated),"inconclusive: 52.1 µM [inhibitor, single point]",
Cc1cc(C)cc(N(CC(=O)NC2CCCCC2)C(=O)c2ccc(C)s2)c1,"inconclusive: 10.4 µM [inhibitor, partial curve, poor fit]",
COc1ccc(C(=O)NC2CC2)cc1OC1CCN(Cc2ccc(F)cc2Cl)CC1,,inactive: -3.16%
CC(=O)c1cccc(S(=O)(=O)N2CCCC(c3nc4c(nnn4Cc4cccc(Cl)c4)c(=O)[nH]3)C2)c1 (configuration not stated),"inconclusive: 58.5 µM [inhibitor, single point]",
Cc1cccc(Cn2cc(C(=O)Nc3ccc(S(N)(=O)=O)cc3)ccc2=O)c1,,inactive: -7.19%
COc1ccc(-c2cc(C(F)(F)F)nc(SCCC(=O)Nc3cccc(O)c3)n2)cc1,"inconclusive: 50.1 µM [inhibitor, single point]",
COc1ccc(/C=C/C(=O)c2ccc(NS(=O)(=O)c3ccc(C)cc3)cc2)cc1O,"inconclusive: 63.1 µM [inhibitor, single point]",
CC(C)(C)OC(=O)N1CC=C2C(C#N)=C(N)C(C#N)(C#N)C(c3cccs3)C2C1 (configuration not stated),"inconclusive: 46.5 µM [inhibitor, partial curve]",
CCN1C(=O)[C@H]2[C@@H](c3ccc(-c4ccc(OC)cc4)c(OC)c3)N3CCCC[C@@]3(C(=O)OC)[C@H]2C1=O,"inconclusive: 28.2 µM [inhibitor, full curve]",
Cn1c2ccccc2c(=O)c2c(=O)n(C3CCCCC3)c(-c3cccs3)nc21,active: 36.9 µM,
COc1ccc(N2C(=O)C(CC(=O)Nc3ccc(Cl)cc3)N(NC(=O)c3cccc(F)c3)C2=S)cc1 (configuration not stated),"inconclusive: 58.5 µM [inhibitor, single point]",
COc1cccc(-c2cc3nc(C)c(C)c(N4CCN(C(=O)c5ccoc5)CC4)n3n2)c1,"inconclusive: 50.1 µM [inhibitor, single point]",
COc1cc(-c2nc3ccccn3c2/N=C/c2cccc(F)c2)ccc1O,"inconclusive: 52.1 µM [inhibitor, single point]",
CCCc1cc(C(=O)Nc2c(C)nn(Cc3ccc(Cl)c(Cl)c3)c2C)no1,,inactive: -5.94%
CCc1ccc(C2CC(=O)Oc3c2c(=O)n(C)c2ccccc32)cc1 (configuration not stated),"inconclusive: 63.1 µM [inhibitor, single point]",

SMILES,Potency,"activity change, negative = inhibition"
CCCCC(CC)CN=C(N)NC(N)=NCCCCCCN=C(N)NC(N)=NCC(CC)CCCC (configuration not stated),"inconclusive: 44.7 µM [inhibitor, partial curve, poor fit]",
C[C@@]12C(=O)Nc3ccc(F)cc3C(=O)N1[C@H]1c3cc(Br)ccc3OC[C@@H]1[C@@H]2c1ccccc1,"inconclusive: 50.1 µM [inhibitor, single point]",
Cc1cc(C)c2oc(C(=O)Nc3ccc(S(=O)(=O)Nc4nccc(C)n4)cc3)cc(=O)c2c1,"inconclusive: 63.1 µM [inhibitor, single point]",
Cc1cccc(C)c1Nc1c(-c2ccc(O)cc2)nc2sccn12,"inconclusive: 50.1 µM [inhibitor, single point]",
O=C(COc1ccccc1/C=C\c1nc(O)c([N+](=O)[O-])c(=O)[nH]1)Nc1ccccc1,"inconclusive: 52.1 µM [inhibitor, partial curve, poor fit]",
Cc1ccccc1C(=O)n1nc(-c2ccco2)nc1NCc1cccs1,"inconclusive: 70.8 µM [inhibitor, single point]",
CCc1nnc(NC(=O)CSc2nc(-c3ccc(F)cc3)cc(-c3ccccc3)c2C#N)s1,,inactive: -2.26%
CCn1c(SCC(=O)N2CCc3ccccc3C2)nc2sc(C)c(C)c2c1=O,"inconclusive: 58.5 µM [inhibitor, single point]",
Cc1ccc(N2CCN(C(=O)C3CCC(CNS(=O)(=O)c4ccc(Br)s4)CC3)CC2C)cc1 (configuration not stated),,inactive: 0.644%
Clc1ccc2c(c1)C(c1cccs1)=NNC(c1cccnc1)=N2,"inconclusive: 58.5 µM [inhibitor, single point]",
C[C@H](CO)N1C[C@H](C)[C@@H](CN(C)C(=O)Nc2ccc(C(F)(F)F)cc2)Oc2c(NC(=O)NC3CCCCC3)cccc2C1=O,"inconclusive: 35.5 µM [inhibitor, partial curve, poor fit]",
CCOc1ccc(NS(=O)(=O)c2cc(NC(=O)c3ccc(C)cc3)ccc2Cl)cc1,,inactive: -3.2%
CN1C(=O)N(CC(=O)N2CCN(S(=O)(=O)c3ccc4c(c3)CCC4)CC2)C(=O)C12CCCCC2,,inactive: 0.404%
O=C(NC1CCCCC1)C(c1cccs1)N(C(=O)C(F)(F)F)c1ccccc1 (configuration not stated),"inconclusive: 13.1 µM [inhibitor, partial curve, poor fit]",
CCOC(=O)c1cc2c(=O)n3ccccc3nc2n(CC2CCCO2)c1=NC(=O)c1ccc(OC)cc1OC (configuration not stated),"inconclusive: 50.1 µM [inhibitor, single point]",
Cc1cccc(C)c1NS(=O)(=O)c1ccc(NS(=O)(=O)c2ccc3c(c2)OCCO3)cc1,"inconclusive: 44.7 µM [inhibitor, partial curve, poor fit]",
N#Cc1ccc(CSc2nnc(NC(=O)c3ccc4ncsc4c3)s2)cc1,"inconclusive: 58.5 µM [inhibitor, single point]",
C[C@@H]1CN([C@@H](C)CO)C(=O)Cc2cc(NC(=O)C3CCCCC3)ccc2O[C@H]1CN(C)S(=O)(=O)c1ccccc1,"inconclusive: 44.7 µM [inhibitor, partial curve, poor fit]",
COC(=O)c1cc(C(=O)OCC(=O)Nc2ccccc2OC(F)F)cc([N+](=O)[O-])c1,,inactive: 1.42%
CC(C)n1c(SCC(=O)c2ccc(F)cc2)nc2c(sc3ccccc32)c1=O,"inconclusive: 44.7 µM [inhibitor, partial curve, poor fit]",

# Source: PubChem BioAssay AID602179 (National Center for Advancing Translational Sciences (NCATS), 2012)
